ETS1 binding intensity data for 80 sequences are collected here from the supplement of paper PMC10681739.

± gives the standard deviation of the averaged measurements. Over roughly 4,100 sequences, “arbitrary fluorescence units” has its median near 780; the highest 2% begin near 22,000. This is one part of the list.

The target in the assay is T1, ETS1 (UniProt P14921).
T1 sequence: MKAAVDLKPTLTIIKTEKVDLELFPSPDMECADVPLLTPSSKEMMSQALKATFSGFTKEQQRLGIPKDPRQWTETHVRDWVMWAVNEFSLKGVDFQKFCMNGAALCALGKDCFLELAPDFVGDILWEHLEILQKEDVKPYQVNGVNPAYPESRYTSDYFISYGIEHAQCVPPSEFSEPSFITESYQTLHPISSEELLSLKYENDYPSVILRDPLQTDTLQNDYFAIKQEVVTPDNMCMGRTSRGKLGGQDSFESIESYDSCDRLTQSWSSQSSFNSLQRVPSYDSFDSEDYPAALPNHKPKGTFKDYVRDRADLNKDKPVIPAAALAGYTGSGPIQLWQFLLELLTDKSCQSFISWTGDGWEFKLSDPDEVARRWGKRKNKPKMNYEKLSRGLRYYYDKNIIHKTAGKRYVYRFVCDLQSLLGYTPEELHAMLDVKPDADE
The assay is described as follows: ETS1 binding intensity (PBM fluorescence), ETS1 alone (arbitrary fluorescence units); higher = stronger binding. The following applies: ETS1 concentration 1 nM; RUNX1 concentration 0 nM. The method, boiled down:
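Double-stranded Agilent 4 × 180k arrays held 36-bp genomic probes whose RUNX1 partner site was mutated, and these were incubated with 1 nM full-length recombinant human ETS1 in the absence of RUNX1 under standard PBM protocols. Bound protein was labelled with anti-ETS1 antibody (Cell Signaling Technology 14069) plus an Alexa488-conjugated secondary and read on a GenePix 4400A, with four spots printed per sequence. Binding level is reported as raw spot fluorescence intensity summarised over replicate spots.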
Sequence TTCAGCCTCCCGCCTCAAGCTCCCTTCCGCCGCTCC had an ETS1 binding intensity of 384.
With CCCCGGCTGAGGGGCTCTGGGAAGCGGATGCTAGCC, the ETS1 binding intensity was determined as 421.
For GCCCTTCCTCCCGGCGCGCAGGGTGAGGTCCCCGAG the value was 2220; for AAACTACTTTCCTTCCTACCAAAACTACACTAAAGA, 824; for GAGAACTTCCGGTGCGCTCCCCGGGACTGCAGTCCC, 46000.
With GCAGTCAGGCCCACGTTCCTCTTACTTCCCGCCATT the figure was 440.
For TGCCTTCTGGGAAGTCGGGCGCTCTGCAGCTGTGAC the value was 347.
TACGCACACGCTTCGGGATCCTTCCGCTCCGGGTTA yielded an ETS1 binding intensity of 644.
As for TTCAGTGGGTGCTTACTCGGCATCCTGTTGGGCTTC, the ETS1 binding intensity was determined as 1130.
Take ACGGAGCCGGGGAAACGCGCCGCCGCCCAGAACGCC: the ETS1 binding intensity was found to be 364.
TCTTGCTGGCCGCCCCTCCCACTTCCCACTGGGCTG gave an ETS1 binding intensity of 362.
The sequence GTTCGAAAAGCGCCCGGGCGCCTGTGGGAAATGTAG displayed an ETS1 binding intensity of 395.
For TTGGGGTTGAGTTCCCTAGCTGACACTTCCTATATT the value was 495; for GGGGAGGGACTGCAGGGAGGCGGAAGTCCTTGTTTT, 1930.
With TGCAAGAGGAAGCTGGGGTTTGGGGTTCATGTTTTG the figure was 699.
For AGCTAGGACAGGATGTGAAAACTACACTGACAAAGT the value was 4610.
TGCTTGGGGTCCCTCGGCCCGTTTTCCTGCTAGTGG: the ETS1 binding intensity came to 311.
AGCGCCCGCTGCCGCTGCCGTGGAAGGAAACGCTGC registered an ETS1 binding intensity of 384.
Consider GCAGAAGAGGAAATGGTTTGCCTGTGCGCTGGGGGA, for which the ETS1 binding intensity stood at 1920.
For ACCATATCCTGAGAATGAACCATCTGGTGGATGCAC the value was 3530.
For ACCTTCCTTCCTGCCTCCCTTGGGGCTCCAGTCCAC the value was 6060; for GGGTTGCCAGGATGACTCCGCTGTACCCCGCCCCGC, 364.
In turn, CCTGTCCCCCATCCTGGGGTCCCTCAGCCTCGCTCT returned an ETS1 binding intensity of 500.
With GACAAGATTGCAGGTGGGAACCCCATCCGGTTTGTT the figure was 1580; with CGATCCATTCGCTGTCTGCACCCGGAAAGTACACCT, 421.
With CCTTGCCTGCAGGCTTTCTGGTCTCCGGATGGAGGC the figure was 319; with ACTGATGCGCTCACAGACAGCAAAGGCAGGAAACAG, 476.
For GGACACATCTGGTGTTCTGCAGGATGCAAAAGACCT the value was 366; for GGCAACAACCCCAAATCAGTGCGCCGGCTTCCTTAT, 354.
The sequence GGGAGAGGCCGTGGGAGCGGAAGGAAAATCAGAGAA yielded an ETS1 binding intensity of 593.
With TCAGGAAACCCAGAAACCCTAATTGTCCCCAGAGAA the figure was 499.
With TGAGCCTTGGAAGGAAATGATTCACCAAAATACTGT the figure was 540.
TGGGCTTCCTCTCCATTATCCTAATTAGGTGGCTTG gave an ETS1 binding intensity of 2500.
GGGCCCTTCCTGTGGCGCCTGCCGAGCTGTCGTTGG came in with an ETS1 binding intensity of 4650.
For AGGCAACTCCCATAAACCCCCGGACGCGGAACACTG the value was 411; for CTGTTAGTGCTTTGAATCTCACATCCTGTAATGGTT, 2380.
With TCACTCCTCTTCCTTCCTGCCACCCTCAGGGTCAGC the figure was 3250; with CCGCTTCCGGCCTTCGCCCGGCTTAGCCGCGTCGCA, 34700.
For CTAACTGAGGGTGTTGTTACACAGGATGATTCTTAG the value was 399; for ACTGTAGTTTATGAAAGAGCTTTTAGGAAACATTTA, 376; for GACGCAGGATGAGCTGGAGGTGTAGAATGGGGTGCT, 435.
CTCACCTCGGGCTAGGGAGCGTGGGATTCCGGACTG yielded an ETS1 binding intensity of 330.
For ATGAAACCAAGACCAAAAAGGAAGGAAACCAGAAAG the value was 451; for CTCGCCCCATTTCCCGTAAATATCAGCCACGGACCA, 3990; for CCCTCCGGCCCTCAGCCCTGCCCAAACGGAAGTGCT, 787.
With TGAAAGCCAGGGAAGTGGCTCCCAGAATAAGCCAAG the figure was 487.
With GCCGCGCTTTCCGGAGCTGGTCGCCGAAGCGAACAA the figure was 2170; with AGCTGTAGCTTCAGTGTTTCTGATTTCCTCTTGTTG, 420.
The sequence CTGGTAGAAAAGGAAGCAGGTTGGGGTGAGCATTTA returned an ETS1 binding intensity of 552.
For TATTTCCTGTGCACAGAAGCAGCTGGGCCGAAGAGT the value was 34400; for CGAAATCACATGAAACCAGAGTAGCTTCCGTACAGG, 524.
In turn, CCAGCACGTGGGCTCTGAACCGGAAGCAACAGGCTC registered an ETS1 binding intensity of 3250.
With GACATATCCTGCATTCTCAGAAAAATCACAGGCTAG the figure was 8110; with GCAAACGCACTCCGAAAGCTCTGGGCCGGAAGAGTC, 413; with CCTCCTCTTCCTCCCCACTCTGCACATACGGCTGGG, 1030.
For CCCCAGCGGATTTCCAGCGTACGCACAAGTTCCGCC, the ETS1 binding intensity amounted to 578.
With CGGGTCCTGAGGGCGCTGGCGGAAAGAGGCGAGGCG the figure was 332; with TCTCCTGTGTCCACGGCTGAAAACCTACATCCCGTC, 484.
Sequence AGAAAGAAAAGCCAAAGTGCCTCCAGGAAGTAAACA yielded an ETS1 binding intensity of 470.
With TGTTTGCTGTTTAGACCCCAAAGATTCCTGTTGGTA the figure was 461.
For TACATAGGCGGAAGTGGCCTGAGGGCGCCGGAGTTG the value was 6290; for ACATGAGGAAACTGAAGCATAGAGAGGGTGGATAAC, 474 ± 120; for CCCCTGCAGGCCGCCGCTGCGCCCGTGCATCCGTCA, 358.
With TAAATCCACCTCAGTACAAATGAACTTCCTTTTCAA the figure was 737.
Regarding TAAGTGTTGGGGTTTTTTAGTTTCCTGTTCAGTTGC, the ETS1 binding intensity was found to be 1220.
For CAGTGAACAGTTTCCTGTTCCTGTGATTTTGACTTT the value was 7430.
With TGTTGTGTAGTTTCAGAGATACTTCCTTGGGTTGCC the figure was 510; with TTCAGGTGACTTCCGGCCGGACCTCTGAGGACGCGG, 24100 ± 4200.
GCGGGGCGGGGTACAGCGGAGTCATCCTGGCAACCC came in with an ETS1 binding intensity of 583.
For TTTGTTGTTCCGGGTGCGAGGCGGCCGAAGCTTCCA the value was 940; for GGCCAAGGAAGCGGCCCCCTAAATCCGCTCCCGGGA, 425 ± 5.
With CCTCATTTCCGGGCTGTTTGCGCGCAAGCCCTCATC the figure was 19800; with GTGACTCCACGGTGTACAGCTTCCTTCACCCCACTT, 498; with CACCCGCCCCCCGGAAGTGCCGGTCGTTGGGCTCCG, 5380.
For GTGCAGGCCGGAAGGAAAAGGGTTCTGGGGCTCATT the value was 1570; for GCAGGCGTGCGCTTCCGCTCCAACCGGCGCACTTCG, 6480; for CGATTCCGGATTGGTCCAATTCCAGCGCCGAAGCCC, 673.
The sequence GCGCACTTCCGGGCTGGTGAACGCGTTGACGTCACC displayed an ETS1 binding intensity of 35400.
For GAAACTTCTCAAGGAAATAGCTGTGATAAACAATAC the value was 459; for CATTATTAACCTTCCGGCAAATCCCCAGAGCCGCCA, 2460.
